The structures appear in SMILES notation. Several values for one entry are separate records, joined by “and”; a condition that tells them apart may be missing. Equal values may be shown once. The campaign covered roughly 110,000 compounds. About 230 (0.21%) showed an effect of 50% or more. Some of the results follow.
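Also: 30 min substrate incubation versus DMSO and 10 µM JCP410 controls.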

The target in the assay is DPAP1 (Plasmodium falciparum, UniProt Q8IIJ9). The assay is described as follows: primary screen, percent inhibition; read by cleavage of a fluorogenic dipeptide substrate; higher = more effect of the substance. The arrangement: species or system P. falciparum D10 trophozoite lysates; single well.
DPAP1, sequence (Q8IIJ9 whole entry, looked up): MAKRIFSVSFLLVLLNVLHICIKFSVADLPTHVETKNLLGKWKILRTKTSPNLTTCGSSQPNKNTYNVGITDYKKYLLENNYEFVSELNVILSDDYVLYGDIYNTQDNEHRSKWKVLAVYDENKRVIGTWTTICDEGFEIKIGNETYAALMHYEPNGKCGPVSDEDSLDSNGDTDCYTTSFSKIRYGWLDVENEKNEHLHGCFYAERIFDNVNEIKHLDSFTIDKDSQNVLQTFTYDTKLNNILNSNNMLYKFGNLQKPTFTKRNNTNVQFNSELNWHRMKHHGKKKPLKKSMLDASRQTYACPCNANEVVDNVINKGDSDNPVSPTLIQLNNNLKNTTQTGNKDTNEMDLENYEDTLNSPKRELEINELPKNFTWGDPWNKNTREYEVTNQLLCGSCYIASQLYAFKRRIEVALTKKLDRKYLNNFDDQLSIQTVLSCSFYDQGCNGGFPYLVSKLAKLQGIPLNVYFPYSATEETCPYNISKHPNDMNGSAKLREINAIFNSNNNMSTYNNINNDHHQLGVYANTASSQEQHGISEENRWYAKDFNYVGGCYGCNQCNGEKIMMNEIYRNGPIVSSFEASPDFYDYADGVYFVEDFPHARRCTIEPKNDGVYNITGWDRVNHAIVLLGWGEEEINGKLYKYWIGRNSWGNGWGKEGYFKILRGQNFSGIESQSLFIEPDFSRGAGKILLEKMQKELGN
Regarding `COc1ccc(C2C(C#N)=C(N)N(c3cccnc3)C3=C2C(=O)CC(C)(C)C3)cc1CN1CCOCC1` (stereo not drawn), the “% Inhibition @ 10 uM” value is -4.65%.

Consider `CC1(C)CC(O)=C/C(=N/CCc2c[nH]cn2)C1`, for which the “% Inhibition @ 10 uM” value is -1.69%.

In the case of `O=C(CCN1N=C(c2ccccc2)CCC1=O)NC1CCCCC1`, the “% Inhibition @ 10 uM” value came to 3.24%.

Regarding `CCCCOc1ccc(C(=O)NCc2ccc(OC)cc2)cc1`, the “% Inhibition @ 10 uM” value was -2.05%.

Consider `Cc1occc1C(=O)Nc1ccc(F)cc1F`, for which the “% Inhibition @ 10 uM” value is given as -0.436%.

For `Cc1ccc(-c2nc(CS(=O)(=O)CC(=O)NCCCSC3CCCCC3)c(C)o2)cc1`, the “% Inhibition @ 10 uM” value was -0.138%.

Take `CC1CC(C)CN(C(=O)c2nn(C)c3c2CS(=O)(=O)c2ccccc2-3)C1` (stereo not drawn): the “% Inhibition @ 10 uM” value worked out at 0.0845%.

As to `Cc1cc(/C=C2/C(=N)N3C=CSC3=NC2=O)c(C)n1Cc1ccccc1`, the “% Inhibition @ 10 uM” value is given as 3.87%.

As to `O=c1c(O)c(-c2ccc3c(c2)OCO3)oc2ccccc12`, the “% Inhibition @ 10 uM” value was -5%.

As to `Clc1cccc(N2CCN(CC3CCCCC3)CC2)c1`, the “% Inhibition @ 10 uM” value turned out to be 2.99%.

Regarding `CS(=O)(=O)N(Cc1ccc(Cl)cc1)c1ccc(C(=O)N2CCN(c3ccccc3)CC2)cc1`, the “% Inhibition @ 10 uM” value is on record as 2.79%.

With `Cc1cccc(NC(=O)c2nc(-c3ccc(Cl)cc3)n3c2CCCCC3)n1`, the “% Inhibition @ 10 uM” value came to 6.14%.

`COc1ccc2c(c1)N=C1C(CC(=O)N1CCN(C)C)S2` (stereo not drawn): the “% Inhibition @ 10 uM” value was found to be 4.11%.

Regarding `O=c1cccc2n1C[C@H]1C[C@@H]2CN(Cc2ccccc2[N+](=O)[O-])C1`, the “% Inhibition @ 10 uM” value is on record as 3.15%.

`CCN(CC)CCCCOc1cc(C)cc(C)c1`: the “% Inhibition @ 10 uM” value is given as 0.565%.

As for `Cc1ccc(Cn2nc(C)c(NC(=O)c3cc(CC(C)C)on3)c2C)cc1`, the “% Inhibition @ 10 uM” value was -1.84%.

Consider `Cc1ccccc1NC(=O)CN1CC(c2ccccc2)CC1=O` (stereo not drawn), for which the “% Inhibition @ 10 uM” value is listed as -1.12%.

For `CC1(C)CC(c2csc(-c3ccccc3)n2)CCO1` (stereo not drawn), the “% Inhibition @ 10 uM” value was -2.07%.

For `COc1cc2ncc(S(=O)(=O)c3ccccc3)c(N3CCCC(C)C3)c2cc1OC` (stereo not drawn), the “% Inhibition @ 10 uM” value was -3.67%.

`CCCCn1c(CNC(=O)c2cccc(C)c2)nc2ccccc21`: the “% Inhibition @ 10 uM” value was -2.49%.

On to `CC(=O)C1=C(O)C(=O)N(CCc2c[nH]c3ccccc23)C1c1cccc(O)c1` (stereo not drawn), for which the “% Inhibition @ 10 uM” value is listed as 0.907%.

With `Cc1nn(C)c(C)c1CN(C)C(=O)CC12CC3CC(CC(C3)C1)C2`, the “% Inhibition @ 10 uM” value is listed as 1.92%.

In the case of `CC1=C(C(=O)Nc2ccc(F)cc2)C(c2cccc(Cl)c2)NC(S)=N1` (stereo not drawn), the “% Inhibition @ 10 uM” value is reported as -3.63%.

In the case of `Cc1ccc2[nH]c(CCN(C)C)c(CN3CCOCC3)c2c1`, the “% Inhibition @ 10 uM” value was -5.31%.

Take `O=C1CC(c2ccccc2C(F)(F)F)C2=C(CC(c3cccs3)CC2=O)N1` (stereo not drawn): the “% Inhibition @ 10 uM” value is 3.67%.

`Nc1ccc(-c2nc3cc(N)ccc3s2)cc1`: the “% Inhibition @ 10 uM” value was -4.44%.

On to `Cc1ccc(N2CCN(CC(=O)Nc3ccc(Br)cc3)CC2)cc1C`, for which the “% Inhibition @ 10 uM” value is on record as -8.01%.

`CCCCN(C1CCN(C)CC1)S(=O)(=O)c1ccc(-c2cc(C(F)(F)F)no2)s1`: the “% Inhibition @ 10 uM” value is reported as -2.86%.

On to `CCOc1ccc2c(c1)nc(SCC(=O)c1cccs1)n2C`, for which the “% Inhibition @ 10 uM” value is given as -0.865%.

On to `COc1cccc(C2C(C#N)=C(N)N(c3c(F)cccc3F)C3=C2C(=O)CC(C)(C)C3)c1` (stereo not drawn), for which the “% Inhibition @ 10 uM” value is given as -4.76%.

`Cc1ccc(OCC(=O)Nc2cccc(NC(=O)COc3ccc(C)cc3)n2)cc1`: the “% Inhibition @ 10 uM” value was -4.63%.

In the case of `Cc1ccccc1S(=O)(=O)Cc1ccc(C(=O)NC(C)c2ccc3c(c2)OCCO3)o1` (stereo not drawn), the “% Inhibition @ 10 uM” value is -3.09%.

As for `Cc1ccc(-c2cc(C(F)(F)F)n3ncc(C(=O)O)c3n2)cc1`, the “% Inhibition @ 10 uM” value was determined as 2.13%.

As to `O=C(c1ccco1)N1CCN(c2ccc(F)cc2)CC1`, the “% Inhibition @ 10 uM” value was 3%.

For the molecule `CCn1c(-c2nonc2NC(=O)c2ccccc2Cl)nc2ccccc21`, the “% Inhibition @ 10 uM” value is -15.2%.

For `CCOc1ccc2nc(NC(=O)c3cnn(-c4ccccc4)c3-n3cccc3)sc2c1`, the “% Inhibition @ 10 uM” value is recorded as 0.137%.

Take `CCC(C)C(C(=O)Nc1nc(-c2ccc(Br)cc2)cs1)N1C(=O)c2ccccc2C1=O` (stereo not drawn): the “% Inhibition @ 10 uM” value amounted to 2.38%.

`O=S(=O)(/C=C/c1ccccc1)NCc1ccc2c(c1)OCO2`: the “% Inhibition @ 10 uM” value came out at 7.2%.

For the molecule `Cc1ccc(OCC(=O)Nc2ccc(Nc3ccccc3)cc2)cc1`, the “% Inhibition @ 10 uM” value is recorded as -2.67%.

`Cc1ccc(NS(=O)(=O)c2ccc(NC(=O)c3ccc(N(C)S(C)(=O)=O)cc3)cc2)cc1`: the “% Inhibition @ 10 uM” value is given as 0.709%.

As for `COc1ccc(C=O)cc1CSc1nc2ccccc2s1`, the “% Inhibition @ 10 uM” value was 21.6%.

Consider `COC(=O)C1=C(C)NC(=O)CC1c1ccc2ccccc2c1` (stereo not drawn), for which the “% Inhibition @ 10 uM” value is reported as -1.54%.

In the case of `O=C(c1ccc(F)cc1)N1CCCCC(S(=O)(=O)c2ccccc2)C1=O` (stereo not drawn), the “% Inhibition @ 10 uM” value is given as 2.22%.

On to `OCCCNc1ncnc2c1oc1ccccc12`, for which the “% Inhibition @ 10 uM” value is listed as -5.41%.

For `O=C1CSC2N1CCCC21CCCCC1` (stereo not drawn), the “% Inhibition @ 10 uM” value was found to be 2.58%.

For `Cc1cc(OC(C)C(=O)NC2CCS(=O)(=O)C2)cc(C)c1Cl` (stereo not drawn), the “% Inhibition @ 10 uM” value was -1.89%.

Take `CCN1CCN(C(=O)C(C)Oc2ccccc2Cl)CC1` (stereo not drawn): the “% Inhibition @ 10 uM” value was -0.884% and -2.46%.

`COc1ccc(/C=N/c2nc3c(s2)CCc2cc(OC)ccc2-3)cc1`: the “% Inhibition @ 10 uM” value is 3.16%.

As to `CNC(=O)c1[nH]cnc1C(=O)Nc1cccc(OC)c1`, the “% Inhibition @ 10 uM” value is -4.68%.

In the case of `C=CCNC(=O)CCCc1nc(-c2ccc(OC)cc2)no1`, the “% Inhibition @ 10 uM” value was -2.92%.

Regarding `CN(C)CCN1C(=O)C(O)=C(C(=O)c2ccccc2)C1c1ccc(N(C)C)cc1` (stereo not drawn), the “% Inhibition @ 10 uM” value is recorded as -4.82%.

`Cn1c2ccccc2n2c(=O)c(Cl)c(-c3ccccc3)c(C#N)c12`: the “% Inhibition @ 10 uM” value was -1.98%.

As for `N#CCNC(=O)[C@H](CC1=CCCC1)NC(=O)c1ccccc1`, the “% Inhibition @ 10 uM” value is reported as -1.83%.

Turning to `O=C(CSc1nnc(-c2cccc(F)c2)n1-c1ccccc1)NCc1ccco1`, the “% Inhibition @ 10 uM” value is reported as 6.91%.

Consider `COc1ccc(S(=O)(=O)Nc2cccc(C(C)=O)c2)cc1`, for which the “% Inhibition @ 10 uM” value is on record as -1.92%.

For the molecule `COC(=O)c1sc2nc3c(c(-c4ccc(C)cc4)c2c1N)CCCC3`, the “% Inhibition @ 10 uM” value is -4.16%.

As to `CCOc1ccccc1CN1CCN(c2ccc(F)cc2)CC1`, the “% Inhibition @ 10 uM” value was -7.33%.

For `COc1ccccc1/C=C/C1=NN(c2ccc(Cl)cc2)C(c2ccccc2OC)C1` (stereo not drawn), the “% Inhibition @ 10 uM” value was -1.59%.

`CCN(CC)S(=O)(=O)c1cccc(C(=O)Nc2cccc([N+](=O)[O-])c2)c1`: the “% Inhibition @ 10 uM” value stood at 1.63%.

On to `O=C1c2ccccc2-c2nn(C(=O)Cc3ccccc3)c3cccc1c23`, for which the “% Inhibition @ 10 uM” value is on record as -0.958%.

`CCS(=O)(=O)c1nc(S(=O)(=O)c2ccc(Cl)cc2)c(NCc2ccccc2)s1`: the “% Inhibition @ 10 uM” value is on record as -0.522%.

On to `COC(=O)c1ccc2c(c1)[N+](C)=C(/C=C/c1ccc(OC)cc1OC)C2(C)C`, for which the “% Inhibition @ 10 uM” value was -1.11%.

As for `CCOc1ccccc1NC(=O)CN(c1ccccc1)S(=O)(=O)c1ccc(C)cc1`, the “% Inhibition @ 10 uM” value is listed as 4.11%.

These data come from PMC6919601, “Identification of Plasmodium dipeptidyl aminopeptidase allosteric inhibitors by high throughput screening” (PLoS ONE, 2019).
